Reference: PubChem BioAssay AID1346428 (National Center for Advancing Translational Sciences (NCATS), 2018)
Screen size: about 48,000 compounds; about 1,200 (2.5%) were called active. Not shown: some 2% with an inconclusive outcome.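 The calls were made as follows: active = activation of at least 60% and not above a set upper limit (about 1 call in 100 departs from these limits); inconclusive = activation of 40% to 60%, or above that upper limit; inactive = activation under 40%.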 The list shows a part of the results.

The compounds below were run against Probable G-protein coupled receptor 32 (Homo sapiens) (UniProt O75388) (assay: qHTS for Agonists of Human Resolvin D1 Receptor DRV1). Conditions: CHO-K1 GPR32 beta-arrestin PathHunter luminescence, 90 min; at 76.9 µM; active compounds read high; zero percent set by DMSO-only wells.
Method in brief: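 Agonism was scored as beta-arrestin recruitment to ProLink-fused GPR32 in stably transfected CHO-K1 cells, giving a chemiluminescent beta-Gal signal; compounds were incubated 90 min at 37 °C.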
Also: 0% is about no effect.

Chain of UniProt O75388 (O75388 whole entry, looked up, the tested form may be a part): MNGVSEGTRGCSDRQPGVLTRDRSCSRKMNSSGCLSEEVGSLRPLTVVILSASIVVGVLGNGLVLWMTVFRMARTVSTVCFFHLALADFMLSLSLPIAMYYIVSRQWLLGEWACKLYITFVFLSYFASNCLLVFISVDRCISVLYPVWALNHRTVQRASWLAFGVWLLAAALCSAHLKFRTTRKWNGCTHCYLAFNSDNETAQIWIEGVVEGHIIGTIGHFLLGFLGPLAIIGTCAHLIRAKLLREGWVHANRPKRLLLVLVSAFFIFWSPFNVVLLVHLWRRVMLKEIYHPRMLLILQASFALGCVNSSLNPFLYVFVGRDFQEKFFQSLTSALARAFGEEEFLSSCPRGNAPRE

activation, inactive:
CCc1ccc(S(=O)(=O)c2nnn3c2nc(NC2CCCCCC2)c2sccc23)cc1 -3.07%
Cc1c(C(=O)NCc2ccccc2Br)oc2c1-c1[nH]ncc1CC2 -1.66%
O=C(O)CC[C@@H](C(=O)O)N1C(=O)c2ccccc2C1=O -1.6%
CCN1CCN(c2c(S(=O)(=O)c3ccc(OC)cc3)cnc3cc(OC)c(OC)cc23)CC1 -10.9%
COc1ccccc1Cc1nc2ccccc2[nH]c1=O -2.13%
COc1ccc(NC(=O)c2ccc(-c3nc(CSc4ccccc4)c(C)o3)cc2)cc1OC 15.9%
Cc1ccc(C)c(CN2C(=O)c3ccccc3S(=O)c3ccc(C(=O)NCc4ccccc4)cc32)c1 (centres undefined) -0.265%
CCOCCCNC(=O)C1CCC(CNS(=O)(=O)c2ccc(NC(C)=O)cc2)CC1 (centres undefined) -8.08%
CCOC(=O)c1ccc(N2C(=O)c3n[nH]c(-c4cccs4)c3C2c2cccc(F)c2)cc1 (centres undefined) -13.9%
CCOc1ccccc1NC(=O)C(CC(C)C)NS(=O)(=O)c1ccc2c(c1)CCN2C(C)=O (centres undefined) -5.92%
Cc1oc(-c2cccc(Br)c2)nc1CN1CCC(C(=O)NCCc2ccc(Cl)cc2)CC1 -9.56%
CCc1ccc(NC(=O)CC2C(=O)OCCN2CC)cc1 (centres undefined) 31.4%
CC(C)CNC(=O)CCSc1nc(-c2ccc3c(c2)OCO3)cc(C(F)(F)F)n1 -0.977%
CCc1ccccc1NC(=O)Cn1ncc2c(C)n(Cc3ccccc3F)c(C)c2c1=O -1.84%
Cc1ccc(C)c(N2CCN(c3ccc(NC(=O)c4cccs4)cc3C(=O)O)CC2)c1 -11.2%
O=C(Cn1c(=O)n(Cc2nc(-c3ccccc3)no2)c(=O)c2cc3c(cc21)OCO3)Nc1ccc(Cl)cc1 6.92%
CC(C)[C@H](N)C(=O)OCCOCn1cnc2c(=O)[nH]c(N)nc21 -7.48%
CCN(CC)CCCNC(=O)c1c(C)oc2ncn(CC(C)C)c(=O)c12 -10.8%
Cn1c(=O)n(C)c2cc(NS(=O)(=O)c3ccc(Br)cc3)c(NCc3ccccc3)cc21 28.4%
CCc1ccc(-n2nc(C)c3c(C)cc(=O)n(CC(=O)Nc4ccc(C)c(F)c4)c32)cc1 -0.16%
CCOc1ccc(-n2c(=O)c3c(C)c(C)sc3n(CC(=O)c3ccccc3)c2=O)cc1 5.11%
CCCCN(C)S(=O)(=O)c1cc(-c2nnc3c4ccccc4c(C)nn23)ccc1C 21%
CN(C)c1ccc(NC(=O)CCSc2nc(-c3ccco3)cc(C(F)(F)F)n2)cc1 -36.7%
COc1cc(Br)c(C2CC(=O)Nc3cc(OC)c(OC)c(OC)c32)cc1OC (centres undefined) -9.21%
CC1CCc2c(sc(NC(=O)CCCOc3ccc(C(C)(C)C)cc3)c2C(N)=O)C1 (centres undefined) -0.358%
Cc1ccc(CNC(=O)c2ccc(-n3c(C)cc4c3CCCC4)cc2)cc1 -11%
CC1CCN(c2oc(-c3cccs3)nc2S(=O)(=O)c2ccc(Cl)cc2)CC1 -6.94%
COc1cc(OC)c(NC(=O)CSc2nccn2C)cc1Cl -24%
COc1ccc2oc(-c3ccc(C)c(NC(=O)c4cccnc4)c3)nc2c1 -8.26%
O=C(CSc1nc2cc(C(=O)NC3CCCC3)ccc2c(=O)n1CC1CCCO1)c1ccc(F)cc1 (centres undefined) 23.9%
CNC(=O)c1ccc2c(c1)N=C(C)c1cc(C)ccc1S2 12.3%
Cc1ccc(C)c(S(=O)(=O)c2cn(Cc3ccccc3)c3cc(F)c(F)cc3c2=O)c1 -16.6%
Cc1ccc(OCC(=O)Nc2ccc3nc(SCC(=O)N4CCCC4)sc3c2)cc1 -6.43%
CCOC(=O)c1c(SCC(=O)Nc2nc3ccc(C)cc3s2)nc(=O)[nH]c1C 4.3%
CCCC(=O)OC1=CN(Cc2ccccc2)S(=O)(=O)c2ccccc21 -23.4%
O=C(Cn1cc(SCc2cccc(F)c2)c2ccccc21)N1CCOCC1 -21.9%
CC(C)(C)C1CCc2oc3ccc(NS(=O)(=O)c4cc(Cl)ccc4Cl)cc3c2C1 (centres undefined) -34.1%
Cc1cc(C)c2sc(N(Cc3cccnc3)C(=O)CCS(=O)(=O)c3ccccc3)nc2c1 -6.03%
Cc1cccc(CSc2cn(CC(=O)N3CCCCC3)c3ccccc23)c1 -25.4%
O=C(c1cc(-c2ccc(Br)cc2)n[nH]1)N1CCN(S(=O)(=O)c2ccc(Br)cc2)CC1 4.45%
CN(C)C(=N)N=C(N)N -3.99%
CCC(=O)N1N=C(c2ccc(OC)cc2)CC1c1cn(-c2ccccc2)nc1-c1cccs1 (centres undefined) 3.19%
CCOC(=O)c1cnc2ccc(C)cc2c1Nc1ccc(OCc2ccccc2Cl)cc1 -8.49%
COc1ccccc1N(CC(=O)NCCSCc1ccccc1Cl)S(C)(=O)=O 21.1%
CCOc1ccc(N(c2nc(-c3ccc(OC)c(OC)c3)no2)c2nc(-c3ccc(OC)c(OC)c3)no2)cc1 10.3%
O=C(Cn1ccn(-c2ccc(F)cc2)c(=O)c1=O)NCCc1ccccc1 -9.2%
CC(=O)N1c2ccc(S(=O)(=O)N3CCN(c4ccc(C)cc4C)CC3)cc2CC1C (centres undefined) 8.13%
COC(=O)CSc1nc2c(cnn2-c2ccc(F)cc2)c(=O)[nH]1 5.8%
Brc1c(Br)c(Br)c2n[nH]nc2c1Br 27.8%
COCC(=O)N1c2nc(C(C)C)nn2C2(CCCCC2)[C@@H]2CCCC[C@@H]21 -20.6%
CCOC(=O)c1sc(NC(=O)c2cc(CC)on2)c(C(=O)OCC)c1C 18.9%
Cc1ccc(NS(=O)(=O)c2ccc3[nH]c4c(c3c2)CCCCCC4)cc1Cl 18.6%
CCCOC(=O)c1ccc(NC(=O)Cc2csc(C)n2)cc1 -8.29%
Cc1c(C(=O)NCc2ccccc2)sc2nc3n(c(=O)c12)CCC3 -11.6%
